Measurements: article PMC2651131, “Abelson tyrosine kinase links PDGFbeta receptor activation to cytoskeletal regulation of NMDA receptors in CA1 hippocampal neurons” (Molecular Brain, 2008)

Molecular target: T1, PDGFβ receptor (rat (endogenous in CA1 hippocampal …, UniProt Q05030 32-1097))
T1 construct: PDGFβ receptor, endogenous in CA1 hippocampal slices of day 14-22 Wistar rats; also called platelet derived growth factor β receptor; PDGF receptor; source: endogenous, lysate of rat CA1 hippocampal slices
T1 sequence (looked up): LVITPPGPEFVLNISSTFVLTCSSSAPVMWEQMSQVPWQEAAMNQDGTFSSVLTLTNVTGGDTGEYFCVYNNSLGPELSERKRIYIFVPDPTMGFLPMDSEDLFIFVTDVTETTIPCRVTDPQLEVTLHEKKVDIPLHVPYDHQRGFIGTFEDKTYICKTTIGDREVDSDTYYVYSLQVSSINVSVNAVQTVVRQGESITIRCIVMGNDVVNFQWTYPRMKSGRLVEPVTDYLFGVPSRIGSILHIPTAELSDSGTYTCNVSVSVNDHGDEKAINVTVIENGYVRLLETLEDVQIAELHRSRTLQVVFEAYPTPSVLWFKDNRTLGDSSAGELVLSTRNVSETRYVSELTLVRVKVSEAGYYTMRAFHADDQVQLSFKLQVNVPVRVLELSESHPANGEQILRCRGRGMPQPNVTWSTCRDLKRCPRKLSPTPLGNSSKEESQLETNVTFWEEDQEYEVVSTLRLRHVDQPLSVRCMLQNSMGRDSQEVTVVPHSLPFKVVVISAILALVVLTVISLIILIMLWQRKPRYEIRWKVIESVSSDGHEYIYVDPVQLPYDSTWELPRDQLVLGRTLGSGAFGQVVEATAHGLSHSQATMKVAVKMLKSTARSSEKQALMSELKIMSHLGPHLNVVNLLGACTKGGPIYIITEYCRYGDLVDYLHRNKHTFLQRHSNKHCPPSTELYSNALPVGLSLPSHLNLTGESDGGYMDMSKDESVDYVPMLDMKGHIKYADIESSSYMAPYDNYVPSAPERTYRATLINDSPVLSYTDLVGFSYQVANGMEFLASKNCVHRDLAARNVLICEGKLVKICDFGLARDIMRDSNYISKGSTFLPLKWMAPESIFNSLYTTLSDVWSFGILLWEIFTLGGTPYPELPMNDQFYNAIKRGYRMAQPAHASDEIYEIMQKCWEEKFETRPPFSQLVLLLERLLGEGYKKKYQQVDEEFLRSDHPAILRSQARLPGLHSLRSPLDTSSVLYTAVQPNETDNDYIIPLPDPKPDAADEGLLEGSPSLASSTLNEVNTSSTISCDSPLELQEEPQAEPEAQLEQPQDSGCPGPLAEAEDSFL
Experiment: co-IP; lysate of rat CA1 hippocampal slices (incubated 10 min without or with 10 ng/mL PDGF-BB), 1% NP-40 buffer; anti-PDGFβ receptor antibody precoupled to agarose beads; blot with anti-Abl
Conditions: partners not purified

Abl immunoreactivity in PDGF receptor antibody pull-down after PDGF-BB, fold vs. control: 0.65 fold vs. control
B1: Abelson tyrosine kinase (enzyme)
chain: not shown
notes: Abelson tyrosine kinase (Abl), endogenous in CA1 hippocampal slices of day 14-22 Wistar rats; The bought active mouse Abl kinase (Upstate) was used only for electrophysiology, not in the co-immunoprecipitations; also called Abl; Abl kinase; source: endogenous, lysate of rat CA1 hippocampal slices
